Reference: PubChem BioAssay AID652106 (National Center for Advancing Translational Sciences (NCATS), 2013)
The whole screen tested about 370,000 compounds, of which about 500 (0.14%) were called active. Inconclusive means that the source gave no clear call. Such entries were picked first, then a sample of the others. Calls follow the shape of the dose curve; as a rule, active = well fitted activation curve with a large enough effect; inconclusive = small, poorly fitted or top-dose-only effect; inactive = no such curve, though single readings can be large or run the other way. Where the call is inconclusive, the potency comes from a doubtful curve fit.

Assay: qHTS of alpha-syn Inhibitors; also: nearly all actives have a fitted effect of over 65% in size; as to growth rescue (activation): % of control where 0% means no effect
Conditions: Yeast expressing alpha-synuclein, BacTiter-Glo, 24 h; Potency: growth rescue unless noted; growth rescue (activation): at 46.1 µM (top of the series) unless noted
Method in brief: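 Galactose-induced alpha-syn yeast (OD600=0.02, raffinose-pregrown) + pinned cpd, 24 hr, 30 deg C; growth by BacTiter-Glo luminescence. Growth restoration scores as activation.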
Potency is read from the fitted curve at half-maximal effect; tags tell the direction and shape of the fitted curve.

Q: With Cc1ccc(Cc2c(-c3ccccc3)nc3ccc(Cl)cn23)cc1 as the molecule, how does the Potency read?
A: inconclusive: 28.2 µM [activator, single point]

Q: With N#C/C(=C\c1ccncc1)c1nc2ccccc2o1 as the molecule, how does the “growth rescue (activation)” value read?
A: inactive: 1.58%

Q: With CCOC(=O)C1=CN(Cc2cccc(F)c2)S(=O)(=O)N(CC)C1c1ccc(C(F)(F)F)cc1 (stereo not given) as the molecule, how does the “growth rescue (activation)” value read?
A: inactive: 0.398%

Q: Which “growth rescue (activation)” value does the source give for COC(=O)c1ccc2nc3c(cc2c1)[C@@H]1CCN2C(=O)CCC[C@H](C3)[C@H]12 here?
A: inactive: -0.844%

Q: With COc1ccc(-c2csc(C(O)c3ccc(OC)cc3)n2)cc1 (stereo not given) as the molecule, how does the Potency read?
A: inconclusive: 10 µM [activator, partial curve]

Q: With Cn1nnnc1SCCNS(=O)(=O)c1ccccc1 as the molecule, how does the Potency read?
A: inconclusive: 3.55 µM [activator, single point]

Q: Which Potency does the source give for O=C(O)c1ccc(CN2C(=O)CSC2=S)cc1 here?
A: active: 12.6 µM

Q: Which Potency does the source give for Cc1cc(CCNC=O)c(C)c2c1sc1ccccc12 here?
A: inconclusive: 35.5 µM [activator, single point]

Q: For C[C@]12c3[nH]c4cc(-c5ccco5)ccc4c3CCN1C(=O)[C@@H](CC(=O)NCC13CC4CC(CC(C4)C1)C3)C[C@@H]2C(=O)N1CCCCC1, which Potency is on record?
A: inconclusive: 12.6 µM [activator, single point]

Q: With Cc1cccc(C)c1NC(=O)C(C1CC1)n1c(=O)c(-c2cc3ccccc3[nH]2)nc2ccccc21 (stereo not given) as the molecule, how does the Potency read?
A: inconclusive: 8.91 µM [activator, partial curve]

Q: For Cc1ccc(Cn2nnc3c(=O)[nH]c(C4CCN(S(=O)(=O)c5cc(C)ccc5C)CC4)nc32)cc1, which Potency is on record?
A: inconclusive: 3.55 µM [activator, single point]

Q: For NC(=O)c1c(NC(=O)c2c(F)cccc2F)sc2c1CCN(Cc1ccccc1)C2, which Potency is on record?
A: inconclusive: 35.5 µM [activator, single point]

Q: With N#Cc1ccc(C(=O)Nc2cc(-c3ccc(F)cc3)nn2-c2ccccc2)cc1 as the molecule, how does the Potency read?
A: inconclusive: 5.62 µM [activator, single point]

Q: With OC(c1ccccc1)(c1nc(-c2ccc3ccccc3c2)cs1)C(F)(F)F (stereo not given) as the molecule, how does the “growth rescue (activation)” value read?
A: inactive: 17.3%

Q: With CCCS(=O)(=O)N1CCN(C(=O)c2ccc(-c3ccccc3)cc2)CC1 as the molecule, how does the Potency read?
A: inconclusive: 3.16 µM [activator, partial curve]

Q: With CCNC(=O)NC(=O)C(C)OC(=O)c1oc2ccc(OC)cc2c1C (stereo not given) as the molecule, how does the “growth rescue (activation)” value read?
A: inactive: -0.0676%

Q: With Cc1ccc2nc(COC(=O)c3cnccn3)cc(=O)n2c1 as the molecule, how does the growth rescue (activation) read?
A: inconclusive: 78.8% [activator] [at 1.84 µM]

Q: Which Potency does the source give for O=C(NC1(C(F)(F)F)NC(=O)N(Cc2cccnc2)C1=O)c1cccs1 (stereo not given) here?
A: inconclusive: 5.62 µM [activator, single point]

Q: Which “growth rescue (activation)” value does the source give for O=C(Nc1ccc(Cl)cn1)C1CCCN(c2ncnc3c2nc2n3CCCCC2)C1 (stereo not given) here?
A: inactive: 1.39%

Q: For Cc1nn(Cc2c(F)c(F)c(F)c(F)c2F)c(C)c1NC(=O)c1ccc(COc2ccccc2Cl)o1, which Potency is on record?
A: inconclusive: 31.6 µM [activator, single point]

Q: With CC1CCN(C(=O)c2ccc(-c3ccccc3Cl)o2)CC1 as the molecule, how does the “growth rescue (activation)” value read?
A: inactive: 1.4%

Q: Which Potency does the source give for Cc1ccc(N(CC(O)CON=C2c3ccccc3-c3ccccc32)S(C)(=O)=O)cc1 (stereo not given) here?
A: inconclusive: 20 µM [activator, single point]

Q: For O=C(COc1ccc(Cl)cc1Cl)NNC(=S)NC(=O)c1ccco1, which Potency is on record?
A: active: 10 µM

Q: Which Potency does the source give for CCN1CCN(Cc2ccc(NC(=O)c3ccc(C)c(NC(=O)C4=NN(c5ccccc5)C(=O)C4)c3)cc2C(F)(F)F)CC1 here?
A: inconclusive: 5.62 µM [activator, single point]

Q: With O=[N+]([O-])c1cnc(Sc2ccncn2)c([N+](=O)[O-])c1 as the molecule, how does the Potency read?
A: inconclusive: 17.8 µM [activator, single point]

Q: With CN1CCCN(c2cc(-c3ccc4ccccc4c3)nc3ccnn23)CC1 as the molecule, how does the Potency read?
A: inconclusive: 31.6 µM [activator, single point]

Q: Which “growth rescue (activation)” value does the source give for O=C(N/N=C/c1cccnc1)c1ccc([N+](=O)[O-])cc1Cl here?
A: inactive: -1.49%

Q: With CCC(=O)N1N=C(c2ccc(C)o2)CC1c1ccc(Br)cc1 (stereo not given) as the molecule, how does the “growth rescue (activation)” value read?
A: inactive: 19.7%

Q: For C=CCn1c(SCc2cc(=O)n3ccsc3n2)nc2scc(C3CC3)c2c1=O, which Potency is on record?
A: inconclusive: 25.1 µM [activator, single point]

Q: Which “growth rescue (activation)” value does the source give for O=C(NCc1cccc(Cl)c1)c1ccc(-c2ccc(F)c(F)c2)c2ccoc12 here?
A: inactive: 7.89%

Q: With Cc1nn(C)c(C)c1NS(=O)(=O)c1ccc(Cl)s1 as the molecule, how does the “growth rescue (activation)” value read?
A: inactive: -6.49%

Q: For O=C(O)/C=C/c1ccc2ccccc2c1, which “growth rescue (activation)” value is on record?
A: inactive: 2.88%

Q: For O=C(CCc1nc(-c2ccc(Cl)cc2)no1)NC1CCCC1, which Potency is on record?
A: inconclusive: 5.62 µM [activator, single point]

Q: For O=[N+]([O-])c1ccc(/C=C/c2ccnc3ccccc23)cc1, which Potency is on record?
A: inconclusive: 7.94 µM [activator, partial curve]

Q: Which Potency does the source give for COC(=O)C(/C=N/OCc1ccc([N+](=O)[O-])cc1)NC(=O)c1cccc(Cl)c1 (stereo not given) here?
A: inconclusive: 15.8 µM [activator, single point]

Q: For Cc1cc(C)c(NC(=O)CN(C)C(=O)CNC(=O)c2cccs2)c(C)c1, which Potency is on record?
A: inconclusive: 20 µM [activator, single point]

Q: With O=C(CC(c1ccccc1)c1ccccc1)NCC(O)c1ccc([N+](=O)[O-])cc1 (stereo not given) as the molecule, how does the Potency read?
A: inconclusive: 31.6 µM [activator, single point]

Q: For O=C(O)c1nc(-c2ccccc2)c(C(=O)NC2CC2)[nH]1, which Potency is on record?
A: inconclusive: 3.16 µM [activator, single point]

Q: For O=C(COc1ccccc1Cl)N1CCc2ccccc2C1, which “growth rescue (activation)” value is on record?
A: inactive: -4.48%

Q: With Cc1ccc(C(=O)c2ccccc2C(=O)OCC(=O)NC(C)(C)C)cc1 as the molecule, how does the Potency read?
A: inconclusive: 11.2 µM [activator, partial curve]

Q: With NC(CCc1ccccc1)c1csc(Nc2cnccn2)n1 (stereo not given) as the molecule, how does the “growth rescue (activation)” value read?
A: inactive: 3.41%

Q: With COc1ccc(C(=O)c2oc3ccccc3c2NC(=O)COc2cccc(C)c2C)cc1 as the molecule, how does the “growth rescue (activation)” value read?
A: inactive: -5.58%

Q: With COC(=O)c1ccc2nc(-c3cccc(Br)c3)c(CC3CCCCC3)n2c1 as the molecule, how does the Potency read?
A: inconclusive: 35.5 µM [activator, single point]

Q: For O=C1/C(=C/c2ccccc2Cl)SC(=S)N1CCC(=O)N1CCCCC1CCO (stereo not given), which Potency is on record?
A: inconclusive: 35.5 µM [activator, single point]

Q: For Cc1ccccc1OCC(=O)OCC(=O)c1cc(C)n(C2CC2)c1C, which Potency is on record?
A: inconclusive: 17.8 µM [activator, partial curve]
